# Experimental data: the supplement of paper PMC11417369
# Some of the results follow.
# System: PfAP2-HC AP2 domain (GST-tagged)
# Test: gcPBM binding intensity (ln(normalized median fluorescence intensity)); higher = stronger DNA binding
# How it was run: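 Each value is the highest Masliner-normalised natural-log median intensity across replicate spots of either orientation of a probe. The probes were primer-extended double-stranded 36-bp intergenic genomic sequences on an Agilent 4 × 180k array, alongside negative controls, exposed for 1 h to GST-tagged P. falciparum DNA-binding domains expressed in E. coli. Bound protein was picked up with Alexa488 anti-GST antibody and scanned at 488 nm.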
row,Sequence,gcPBM binding intensity (ln)
1,ATTCATATTTTTCAAGTGCGCATTAAAATATTAACC [GTGCAC_site9741],9.63
2,ATGTCATATATATGTTGTACGAGTTTGTTTATGTAT [XGTACX_site1150],9.91
3,TTCATTTTATAAAAAGCACACATATAGTTATATGCA [CACACA_site9228],9.58
4,AGTTTACATTAAATCACGCACACAAAAAAAAAAAAA [CACACA_site2419],10
5,AATGTGCAGAAAAGTGGTACATATGATTGTTAAGAG [XGTACX_site1038],9.86
6,CCATGATTATTAGATTGTACATAACATACAAATTGA [XGTACX_site314],9.39
7,AATATATTTTTTTTTGGTACACAAGCACATCTATAC [XGTACX_site2183],9.68
8,TTTCGATTATGTTTTTGTACGCAATATATTAATTCT [XGTACX_site3634],9.64
9,GTAGTAATAAATCTAGTGCATTATATATAACAAAAA [GTGCAC_site9803],9.72
10,TTTTTTTCTTTTTTTTGTACTCATACATACTATCAT [XGTACX_site607],9.69
11,AAAAATGTGCACACGCGTACACACAAAAAAAGAAAA [XGTACX_site4097],10.2
12,AAAATATATCAAAATAGTACATAATTTTTTAAGAAT [XGTACX_site3515],9.63
13,AGTTATGCATCTTAGGTGCTATGCCCAATTTATTTT [GTGCAC_site9977],9.72
14,AAAAAAAAAAAAAATGCACACATATATTTCCATATA [CACACA_site8416],9.78
15,TTGCCTTAAAAAGGAACACACATGCTTTTTTTAGTT [CACACA_site938],9.78
16,AACTTACTCTTTACAAGTACGTAAAAGAAATAGAAA [XGTACX_site1782],9.47
17,AATAAAGCAATAAATACACACATATATATATATATA [CACACA_site2934],9.75
18,TATATAAAAAATAGGTGGTCAACTTAAATATTTTAT [XGTACX_site4495],9.67
19,TATTGCCCTTGACACACACACATATAAATAAATATA [CACACA_site7220],10.3
20,TTATGGGACTCAAATACATGCAAAAATATTTTTAAG [TGCATGCA_site559],9.44
21,TAAGGTTAAATAATATGTACATATTATTATATATAT [XGTACX_site6953],9.61
22,TTAAACCGTGGGAGCACACACACACCCAGACACATA [CACACA_site4337],10.4
23,AAATATGTATATATATATATATATATATATATATAT [GTGCAC_negctrl_site335],9.56

row,Sequence,gcPBM binding intensity (ln)
1,AATATATAAGTCTACTGTACCCAAAATAAAATTTAT [XGTACX_site8727],9.6
2,GTATATATACATAAATGTACATATATATAAAAAATG [XGTACX_site3271],9.73
3,ATATATCCAAATAGATTACATATATATATATAGATA [TGCATGCA_negctrl_site277],9.5
4,AAATATAATAAAATGACACACGCATATATATATATA [CACACA_site8900],9.85
5,ATATATTTATATATTGCACACAAAAAAAAAAAAAAA [CACACA_site8468],9.52
6,AACATTATAAGACACACACACACATATATAAATATA [CACACA_site6622],11.2
7,AAATAAGAACATAGAATGCACTTTTTTTTTTTTTCC,9.51
8,GTAATTATATACATACGTACATACACATATGTATAT [XGTACX_site4149],9.85
9,GGATATATGAAACATATTGAAAAACCGTTTAGTACA [CACACA_negctrl_site132],9.72
10,TAATTTTTGTAAACAGTCATGGATTCAAAAAAAAAA [CACACA_negctrl_site593],9.35
11,TTACTATGTAAACACACATGCAATATATGTTAAGCC [TGCATGCA_site253],9.76
12,TTATATGAAAATTATTGTACAATCTATAAAAAAAAT [XGTACX_site4194],9.45
13,TAATAATCAAACTATACACACATAAATAAATATATA [CACACA_site156],9.95
14,AAGGAAATAAGAAAAAGTACACATAAGTATATAACA [XGTACX_site1173],9.82
15,CACGTGTAAATAGTTTTACAATATCTCGATATGTAT [CACACA_negctrl_site785],9.58
16,TGTATGTTTATTTATCGTACATATATATATATATAT [XGTACX_site7315],10.1
17,TTTTATATATTATATACACACATATATATATATATA [CACACA_site2999],9.72
18,AGGAAAAAAAAAATGTGTACTTAAAAAAAAAAAATT [XGTACX_site1471],9.47
19,AATAAATAAATATATACACACATATATCTGTACATA [CACACA_site9034],10.1
20,CGTTTATATTTTAACTGTACTCAAAAAGTGCATTGT [XGTACX_site6072],9.55
21,TTTTATCATATTTATTGTACACATAATATACATATC [XGTACX_site1145],9.99
22,AAATTAGAATTAGGAACACACATATTTATATTTATA [CACACA_site7450],9.74
23,TTTATTCTCCGACACACACACATATATTTATTTATA [CACACA_site7377],10.5

row,Sequence,gcPBM binding intensity (ln)
1,ATATATAAAAAATGTGGTACATTCATTTATTATACA [XGTACX_site3495],9.9
2,CATTTTATAAAAAGCACACATATAGTTATATGCACA [CACACA_site3691],9.6
3,TAAATTATAATAAATACACACAAATTATAATTCTAT [CACACA_site3942],9.74
4,TTTGAATCCTTATATACACACATTATATAATATTAT [CACACA_site4472],9.9
5,TATATATATATACATTGTACATTATTGATTATAACA [XGTACX_site1678],9.57
6,GTGCTAAAAGTATATGCACACACATATATATGCACA [CACACA_site8472],10
7,AATATTTTATATAAATGTACATTTATGAATAATATA [XGTACX_site8477],9.55
8,ACAAAGTAAAATAATGCATGTAGGTATACATAATTA [TGCATGCA_site607],9.86
9,TGTTCATTTATTTACTTACACACTTTATATATGTGG [CACACA_site1410],9.99
10,TAAAAGTAGATATATACACACATAAATATAGATGTA [CACACA_site6457],9.89
11,ACATATTTCCAATAATGTACATACAAAATAAGAATG [XGTACX_site2659],9.67
12,AAAAATAAAAAGAATTGTACATATAAATCATATACA [XGTACX_site6860],9.72
13,GACCCAATGAAAAGGTCACACATTTTTTCTTTTCGA [CACACA_site5074],9.49
14,TAAAAATATATAAACAGTACATAAATTAAATAAATA [XGTACX_site6962],9.79
15,TTTTTTCTTTAATACTCAATATGATAAAAGTAACAC [XGTACX_negctrl_site163],9.31
16,GTTAAAATTTGTCAATGTACAGAAATAATAAAAAAA [XGTACX_site1879],9.59
17,AAAGTTTTTACCAAGTGTACATATATATATATATAT [XGTACX_site5786],9.73
18,TATTTTTTTTAGCGTACATGCAAAAAAAAAAAAAAA [TGCATGCA_site555],9.08
19,GTTTATTTATTTTATGTGCACATATAACAAAAAAAA,9.57
20,ATTTTTTTTTTTATAGTGGAACCACATTTGCCATTT [CACACA_negctrl_site1247],9.49
21,TATTAAATGAAACAAACACACATAGCCTTTAAATAT [CACACA_site1560],9.91
22,TTAGGACAAAAAAAAATAAAAATAAAATAAAATAAT [CACACA_negctrl_site1613],9.61
23,AAATTATATATATTTACATGCAATATAATGAAATAA [TGCATGCA_site229],9.65

row,Sequence,gcPBM binding intensity (ln)
1,ATAAAATAAAACAGAGCACACATTTTATTTACATTC [CACACA_site696],9.79
2,ATATATATATCATATTGTACATATTATTGTATAATC [XGTACX_site5020],9.74
3,TTGTTTTTAAGAAAAACACACACTCCTGTTATTTTA [CACACA_site9230],9.76
4,AAATATTATACAAAAAAAAAAAAAAAAAAAATATAT [CACACA_negctrl_site52],9.58
5,ATTTTGTATATATTTTGTACATATTTTGTATATATT [XGTACX_site885],9.8
6,GTATGTATAATATACACACTCACAAGCATTCAAATA [CACACA_site267],9.76
7,ATATAAACATGTTTGTGTACGTAATATGAAAAATAA [XGTACX_site8157],9.75
8,ATAGCCAAAAATCATGCACACCTAAAAAAAAAAAAA [CACACA_site8826],9.65
9,TATATTTATGTATATGTGCACATAAATTTAAGAATG [GTGCAC_site9512],9.7
10,ATTTTTAATCATTTACAACCTAGTGATTATACAAAT [CACACA_negctrl_site1089],9.57
11,CGTATGCGTATATACACACCCACGTATATATATAAA [CACACA_site3200],9.66
12,ATATAATAATTGTACACATGCACACACAAATATTAT [TGCATGCA_site204],10.1
13,TTCATTTTAATAATATGTACATAATATATTTAAAAA [XGTACX_site634],9.38
14,GTATATATATTTGTACGTACATATTGTTGTAAACAC [XGTACX_site8833],9.92
15,AAGAGAGACATCAACACACATACGTATGTATAGAAA [CACACA_site1397],10.1
16,TTTTTTATTGTGATACGTATATTATTTTATGATTAA [GTGCAC_negctrl_site202],9.64
17,GGGGGTAGGGGAAGAAGTACAATGATCACTACAGTA [XGTACX_site1169],9.59
18,TTAAGTCATAAATAAAGTACATAAATATAATATATA [XGTACX_site6304],9.63
19,ATGTAAATGTTATTATGTACATATTTATTCTTCAAA [XGTACX_site7377],9.66
20,TCCAATTAAATATATGAACACACATGTGAACTTTCT [CACACA_site9318],9.69
